Measured values from the supplement of paper PMC10126150.
Sequences with one replicate were seen in a single cluster, so their values are uncertain.

tested on: ATP; experiment: switch fluorescence ratio, 500 uM ATP over buffer (Cy3 cluster intensity, sum of 5 cycles each) (fold (ratio)); higher = stronger signal-on switching upon ATP binding; sequences stand for … in TCGTCGGCAGCGTCAGATGTGTATAAGAGACAGTTTTTTTTTTTTTTTTTTTTTTTTT…TC; details: aptamer strand: ATP DNA aptamer (quencher-CACCTGGGGGAGTATTGCGGAGGAAGG + anchor), 100 nM annealed; ATP concentration: 500 uM; one replicate
Procedure, shortened: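 After annealing to 100 nM quencher-labelled ATP aptamer, Cy3-labelled switching-strand clusters on a modified Illumina MiSeq flow-cell were imaged in selection buffer. A second image followed after 15 min with 500 uM ATP at 22 °C, and five such buffer/ATP cycles were done, each separated by NaOH stripping and re-annealing. The fluorescence ratio, averaged per switch-domain sequence, is summed target-cycle over summed buffer-cycle Cy3 intensity per cluster, with clusters outside 100-1000 RFU excluded.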
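Note: ATP exposure 15 min at 22 °C before imaging.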

Sequence | switch fluorescence ratio
CGAGATAGAT | 1.01
CGAGATGAAT | 0.977
CGAGATGGAG | 1.01
CGAGATTCAC | 1.01
CGAGATTCCG | 0.974
CGAGCAGATT | 1.16
CGAGCATCGG | 1.01
CGAGCCAAAC | 2.33
CGAGCCGCCG | 0.987
CGAGCTATTA | 1.25
CGAGCTCAGT | 1.06
CGAGCTTTTC | 1.11
CGAGGAGAGC | 1.03
CGAGGAGATA | 0.998
CGAGGAGCTG | 0.948
CGAGGGGTAA | 0.975
CGAGGGTGGG | 1.01
CGAGGTGGCA | 1.02
CGAGTAACTG | 1.13
CGAGTAATTC | 1.79
CGAGTATGAG | 1.01
CGAGTCGTT | 1.02
CGAGTGATAG | 1.27
CGAGTTCAAA | 0.934
CGAGTTCCTA | 0.992

Sequence | switch fluorescence ratio
CGAGTTGGG | 0.956
CGATAAAATT | 1.01
CGATAACGTG | 0.971
CGATACGCAG | 1.06
CGATACGCGA | 1.57
CGATAGCGAT | 1.59
CGATAGTCTA | 0.986
CGATATGACA | 1.01
CGATATGAGA | 1.02
CGATATTAAA | 1
CGATATTACG | 0.982
CGATCATTAC | 2.82
CGATCCAGGT | 1.81
CGATCCCGCC | 1.16
CGATCCCTCT | 1.02
CGATCGTAGC | 1.18
CGATCTAGG | 0.998
CGATCTGGGC | 1
CGATGAGTTA | 0.976
CGATGGACCC | 1.05
CGATGGGTTA | 0.989
CGATGGGTTG | 0.967
CGATGTGTTT | 1.03
CGATTAATTA | 0.996
CGATTAGGTC | 0.943

Sequence | switch fluorescence ratio
CGATTCCGGA | 0.954
CGATTGATAC | 1.86
CGCAACTCTG | 1.69
CGCAACTTAG | 2.19
CGCAACTTTT | 1.15
CGCACAAGGG | 1.13
CGCACCATCA | 1.01
CGCAGCAAAG | 3.31
CGCAGCTGTA | 1.19
CGCAGCTTGA | 1.2
CGCAGGTTCA | 1
CGCAGTACCG | 1.48
CGCAGTGTAT | 1.08
CGCAGTTCCC | 2.69
CGCAGTTCGG | 1.15
CGCATAAGTC | 1.56
CGCATAATAT | 2.05
CGCATATTCT | 3.17
CGCATGCG | 1.01
CGCATGTACA | 1.08
CGCATTCCGT | 1.03
CGCATTCTGG | 1.09
CGCCAAAAGG | 0.99
CGCCAAACTT | 1.15
CGCCAACGAG | 1.16

Sequence | switch fluorescence ratio
CGCCAATAAA | 1.22
CGCCAATGGG | 1.09
CGCCACCTTA | 1.02
CGCCACGAAA | 0.987
CGCCAGGGGC | 1.17
CGCCAGTGGG | 1.05
CGCCATGAGC | 1.07
CGCCCAGTTC | 1.37
CGCCCCGGGT | 1.64
CGCCCTCGGT | 0.998
CGCCGCAGCG | 1.32
CGCCGGTTTC | 1.02
CGCCGTTTTT | 0.972
CGCCTAATCT | 1.01
CGCCTGGATA | 0.979
CGCCTGGTTT | 1.02
CGCCTGTTAC | 1.94
CGCCTTACGC | 1.14
CGCCTTTCTC | 1.68
CGCGAAGAG | 1.04
CGCGAATCGT | 1
CGCGAATCTG | 1.06
CGCGACGATG | 1.03
CGCGATACAA | 4.72
CGCGATCGCA | 1.05

Sequence | switch fluorescence ratio
CGCGATCTTA | 1.09
CGCGATGCCC | 2.07
CGCGATGGCT | 1.08
CGCGATTACT | 4.06
CGCGATTTTC | 1.51
CGCGCAAAAA | 1.09
CGCGCACTCA | 1.78
CGCGCATGGA | 1.06
CGCGCATTGT | 1.15
CGCGCCCCCT | 2.46
CGCGCTGGGG | 1.06
CGCGCTTGGA | 0.988
CGCGGAACGT | 0.969
CGCGGAGAGC | 1.01
CGCGGATCGG | 1.01
CGCGGCTGTG | 1.03
CGCGGGATTC | 1.11
CGCGGGGTGG | 1
CGCGGGGTTA | 1.06
CGCGGGTACG | 1.01
CGCGGTATCC | 1.07
CGCGGTTAAT | 1.01
CGCGTAGCTT | 0.993
CGCGTCCTAA | 0.999
CGCGTGCCCA | 0.99

Sequence | switch fluorescence ratio
CGCGTGGAGC | 1.06
CGCGTTGAGA | 1.04
CGCTAGACAG | 1.05
CGCTAGGAGT | 1.02
CGCTATCAC | 4.99
CGCTCACCCT | 1.21
CGCTCGCGCC | 1
CGCTCGGAGC | 1.09
CGCTCGGTGA | 1.05
CGCTCTGGTA | 1.01
CGCTGAGTGT | 1.05
CGCTGCAAAA | 2.15
CGCTGCATTG | 1.23
CGCTGCTAGC | 1.15
CGCTGGTAGA | 1.06
CGCTGTGTGT | 1
CGCTTACGG | 1.18
CGCTTAGTCC | 1.59
CGCTTCACGA | 0.998
CGCTTCCTGG | 1.11
CGCTTGACTG | 1
CGCTTGTTGC | 1.08
CGCTTTGGGC | 1
CGCTTTTACA | 1.05
CGCTTTTAGT | 1

Sequence | switch fluorescence ratio
CGCTTTTCTG | 1
CGGAAAAACC | 0.983
CGGAAACGGG | 1.01
CGGAAATTCT | 1.01
CGGAACGAGT | 0.999
CGGAACGTAG | 1.01
CGGAACTTTG | 1.03
CGGAAGACGA | 1.16
CGGAAGCATA | 2.95
CGGAAGCTGT | 1.02
CGGAAGTTTT | 1.01
CGGAATCAAA | 0.979
CGGAATGCGG | 1.06
CGGAATGCGT | 1.04
CGGACGAGG | 1.03
CGGACGCTCG | 0.971
CGGACGGCTA | 1.08
CGGACTCTAG | 1.01
CGGACTTGGC | 1.06
CGGAGAATTC | 1.14
CGGAGAGAAG | 0.981
CGGAGATAGC | 1.03
CGGAGGACTT | 1.03
CGGAGGCTT | 1.1
CGGAGGCTTT | 1.01

Sequence | switch fluorescence ratio
CGGAGGGCGG | 1.07
CGGAGTAGGT | 1.02
CGGAGTCAGT | 1.59
CGGAGTCCGT | 0.987
CGGAGTGCGT | 1
CGGATACTGT | 0.928
CGGATATTGG | 0.95
CGGATCAGTT | 1.03
CGGATGAAAT | 1.04
CGGATGAAGC | 1.02
CGGATGACTA | 0.985
CGGATGGTAA | 0.972
CGGATGTCCT | 1.03
CGGCAACACG | 1.66
CGGCAAGTTT | 1.13
CGGCAATATG | 4.45
CGGCAATGT | 3.46
CGGCAGATTG | 1.01
CGGCAGCGCG | 0.991
CGGCATATGT | 0.999
CGGCATCACT | 1.19
CGGCCAAATG | 1.04
CGGCCCGGTA | 1.02
CGGCCCTCCA | 1.09
CGGCCGCTTA | 1.7
